Assay results as given in the supplement of paper PMC12217912.
The list shows a part of the results. Sequences were assembled here from the parent chain. Values near 0.05 are background.

B1: TEV protease; numbered along this chain (parent)
chain: MGESLFKGPRDYNPISSSICHLTNESDGHTTSLYGIGFGPFIITNKHLFRRNNGTLVVQSLHGVFKVKDTTTLQQHLVDGRDMIIIRMPKDFPPFPQKLKFREPQREERICLVTTNFQTKSMSSMVSDTSCTFPSGDGIFWKHWIQTKDGQCGSPLVSTRDGFIVGIHSASNFTNTNNYFTSVPKNFMELLTNQEAQQWVSGWRLNADSVLWGGHKVFMVKPEEPFQPVKEATQL

Variants of: B1
Test: raw area under fraction-flipped curve 0-4 h after induction (AUC4h, not background-subtracted), DNA-recorder readout of cleavage of the substrate (dimensionless); higher = more cleavage of the substrate by the protease variant
Conditions: temperature: 34 °C; time window: 0-4 h after rhamnose induction
Procedure: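 In vivo DNA recorder in E. coli TOP10(DE3) ΔrhaA at 34 °C. Each TEVp single-site mutant (parent TEVp 0) is paired with a single-site variant of the 7-mer TEVs (canonical ENLYFQ|S). The substrate sits between flexible linkers in a Bxb1-sfGFP-TEVs-SsrA fusion, so cleavage stabilises Bxb1 and speeds flipping of a recombination array, read by NGS. The value is the raw area under the fraction-flipped curve over 0-4 h after rhamnose induction (AUC4h), with ≥20 reads per time point. It is not background-subtracted; inactive controls average about 0.047.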
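Also: Bxb1 expression induced with 0.2% (w/v) L-rhamnose at OD600 near 0.5, cultures sampled hourly, flipped fraction per protease–substrate barcode pair counted by paired-end Illumina sequencing.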

| Variant | area with substrate ENLYFAS | area with substrate ENLYFDS | area with substrate ENLYFES | area with substrate ENLYFFS | area with substrate ENLYFIS | area with substrate ENLYFNS | area with substrate ENLYFPS | area with substrate ENLYFRS | area with substrate ENLYFKS | area with substrate ENLYFMS | area with substrate ENLYFTS | area with substrate ENLYFYS | area with substrate ENLYFCS | area with substrate ENLYFGS | area with substrate ENLYFHS | area with substrate ENLYFLS | area with substrate ENLYFSS | area with substrate ENLYFWS | area with substrate ENLYFVS |
| --- | --- | --- | --- | --- | --- | --- | --- | --- | --- | --- | --- | --- | --- | --- | --- | --- | --- | --- | --- |
| Y179G | 0.0529 | 0.0405 | 0.0499 | 0.0625 | 0.0241 | 0.0454 | 0.0357 | 0.058 |  |  |  |  |  |  |  |  |  |  |  |
| F101G | 0.0502 | 0.0393 | 0.0617 |  | 0.0338 | 0.0706 |  | 0.0456 | 0.0536 | 0.0511 | 0.0479 | 0.0174 |  |  |  |  |  |  |  |
| I145S | 0.0652 |  |  |  | 0.061 | 0.0588 | 0.0592 | 0.0467 |  | 0.0663 | 0.0203 |  | 0.0667 | 0.0468 | 0.0652 | 0.0632 | 0.0468 | 0.0592 |  |
| I86H | 0.0252 |  |  | 0.0433 | 0.0142 |  | 0.0386 | 0.0311 | 0.0427 |  |  |  | 0.0599 | 0.0436 |  |  | 0.0394 |  | 0.0302 |
| F41Y | 0.0513 | 0.0412 | 0.0667 | 0.0719 | 0.0559 | 0.0665 | 0.0633 | 0.064 | 0.0648 | 0.0665 | 0.0605 | 0.0655 | 0.0635 | 0.0506 | 0.0455 | 0.0781 | 0.0508 | 0.0652 | 0.0608 |
| R109M | 0.0532 |  | 0.0541 | 0.0761 | 0.0455 |  |  |  |  | 0.0715 |  |  |  |  | 0.0581 |  |  | 0.0574 |  |
| S60I | 0.055 |  | 0.0676 |  | 0.052 |  |  |  |  | 0.0638 |  |  | 0.046 |  |  | 0.0394 |  | 0.0601 |  |
| T30H | 0.0462 | 0.0588 | 0.0594 | 0.0731 | 0.0586 | 0.0528 | 0.0586 | 0.0583 | 0.0753 | 0.0688 | 0.0582 | 0.0625 | 0.0578 | 0.0519 | 0.0572 | 0.0588 | 0.0499 | 0.0494 | 0.0623 |
